# Assay results reported in PubChem BioAssay AID1745845 (National Center for Advancing Translational Sciences (NCATS), 2022).
# Hit rate of the full screen: of about 360,000 compounds, about 2,600 (0.72%) were called active. This list was built around the results that the source calls inconclusive (neither active nor inactive); the mix of calls is not that of the screen. The call rests on the fitted dose curve; in most records, active means well fitted inhibition curve with a large enough effect; inconclusive means small, poorly fitted or top-dose-only effect; inactive means no such curve, though single readings can be large or run the other way. Potencies of inconclusive entries are doubtful fits and often do not repeat.
# Test: Primary qHTS for Inhibitors of ATXN expression; further: nearly all actives have a fitted effect of over 55% in size
# Details: HEK-293 ATXN2-luciferase reporter, luminescence, 24 h; activity change, negative = inhibition: at 57 µM (top of the series)
# Procedure, shortened: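 ATXN2-luciferase reporter cells (luciferase flanked by upstream and downstream ATXN2 gene portions) were treated 24 h at 37 °C with compounds at up to 57 uM. SteadyGlo luminescence gave expression; GF-AFC fluorescence gave viability.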
# On the % scale 0 is the no-effect control and ±100 the full control effect; potency means the concentration at half of the fitted maximal effect; tags describe the fitted curve by direction and shape.
Compound,Potency,"activity change, negative = inhibition"
Cc1cccc(C)c1OCc1nnc(SCC(=O)Nc2nccs2)n1-c1ccccc1,"inconclusive: 11.2 µM [inhibitor, partial curve]",
NC1=NC[C@H](c2ccccc2)N1CCc1cc(C(F)(F)F)cc(C(F)(F)F)c1,"inconclusive: 28.2 µM [inhibitor, single point]",
CCOC(=O)c1ccc(Nc2nnc(C(C)(C)C)c(=O)[nH]2)cc1,,inactive: 5.66%
CC1C(=O)N(Cc2ccccc2F)c2ccccc2N1C(=O)c1c(F)cccc1F (centres undefined),"inconclusive: 35.5 µM [inhibitor, single point]",
CCCOc1ccc(C(=O)Nc2ccc(-c3cc4ccccc4oc3=O)c(C)c2)cc1,"inconclusive: 2.51 µM [inhibitor, full curve]",
O=S(=O)([N-]c1nc2ccccc2nc1-n1cc[n+](Cc2ccccc2)c1)c1ccccc1,,inactive: 15.1%
CCC1CCCCN1C(=O)CSc1nc2ccsc2c(=O)n1Cc1ccccc1 (centres undefined),"inconclusive: 35.5 µM [inhibitor, single point]",
CCc1cccc(C)c1NC(=O)c1cc(S(=O)(=O)N2CCCCCC2)cn1C,,inactive: -2.21%
COc1ccccc1OCCSc1nc2ccccc2n1CCC(=O)O,,inactive: 5.77%
N#Cc1ccc(NC(=O)Nc2ccc(Cl)cc2)cc1,"inconclusive: 39.8 µM [inhibitor, single point]",
CCCCNc1c2c3c(cccc3n(C)c1=O)C(=O)c1ccccc1-2,"inconclusive: 35.5 µM [inhibitor, single point]",
CN(C)c1ccc(-c2[nH][nH]c(=O)c2NC(=O)c2ccc3ccccc3n2)cc1,"inconclusive: 17.8 µM [inhibitor, single point]",
CN1CCCC1CCOC(C)(c1ccccc1)c1ccc(Cl)cc1 (centres undefined),active: 31.6 µM,
N#CC(=C1Nc2ccccc2S1)c1ccnc(OCc2ccc(CN3CCOCC3)cc2)n1,active: 0.0137 µM,
CCc1nc2c(OCc3ccc(F)c(F)c3)cccn2c1N(C)C(=O)c1ccc(C)cc1,,inactive: -28%
CCOc1[nH]c(/N=C/c2ccco2)c(C#N)c1C#N,,inactive: -0.358%
COc1nc(C)ccc1-c1noc(-c2ccccn2)n1,"inconclusive: 20 µM [inhibitor, single point]",
Cc1ccc(N2C(=O)N(CC(=O)C(C)(C)C)c3ccccc3S2(=O)=O)cc1C,,inactive: -17.4%
COc1cc(C2C=C(c3cccs3)Nc3ncnn32)cc(OC)c1OC (centres undefined),"inconclusive: 33.6 µM [inhibitor, single point]",
COC(=O)[C@@]1(Cc2ccc(F)cc2)[C@H]2c3cc(C(=O)N(C)C)n(Cc4ccccc4)c3C[C@H]2CN1C(=O)c1ccccc1,"inconclusive: 28.2 µM [inhibitor, single point]",
O=S(=O)(Cc1ccccc1)N1CCN(c2ccccc2)CC1,"inconclusive: 22.4 µM [inhibitor, partial curve, poor fit]",
CCc1cc(C(=O)Nc2cc(Cl)ccc2N2CCN(C)CC2)sc1C,"inconclusive: 25.1 µM [inhibitor, partial curve, poor fit]",
CC[C@@H](C)[C@H](NC(=O)OC(C)(C)C)c1nnc(S(=O)(=O)Cc2cc(C)ccc2C)o1,"inconclusive: 22.4 µM [inhibitor, single point]",

Compound,Potency,"activity change, negative = inhibition"
CCOc1ccccc1N1CCN(C(=O)c2cccc(-c3ccc(O)cc3)c2)CC1,,inactive: -31.6%
CCn1c2ccccc2c2cc(/C=N/n3cnnc3)ccc21,"inconclusive: 15.8 µM [inhibitor, partial curve]",
CCN(CC)C(=O)C1=C(C)N(Cc2ccc(F)cc2)C(=O)C(CC(=O)NC2CCCC2)C1 (centres undefined),"inconclusive: 5.01 µM [inhibitor, single point]",
CNc1c2cccc(C)c2nc2c(C(=O)NCCN(C)C)cccc12,"inconclusive: 2.51 µM [inhibitor, full curve, poor fit]",
Nc1nc(Cl)nc2c1ncn2[C@@H]1O[C@H](CO)[C@@H](O)[C@@H]1F,active: 1 µM,
Cc1cccc(C(=O)Nc2ccc(C(=O)Nc3ccc(O)cc3)cc2)c1,"inconclusive: 31.6 µM [inhibitor, single point]",
C=CCn1nc([N+](=O)[O-])nc1Sc1cccc2cccnc12,active: 22.4 µM,
Cc1ccc(Cn2c(SCc3ccc(C(=O)N4CCCCCC4)cc3)nc3ccncc32)cc1,"inconclusive: 14.1 µM [inhibitor, partial curve, poor fit]",
COc1ccc(-c2c[n+]3c(n2-c2ccc(C)cc2)CCCCC3)cc1,"inconclusive: 5.01 µM [inhibitor, partial curve, poor fit]",
COc1ccc(-c2oc3cccnc3c2C#CC2(O)CCCCC2)cc1,"inconclusive: 25.1 µM [inhibitor, single point]",
CN(C(=O)CCl)C1CCCc2ccccc21 (centres undefined),"inconclusive: 29.9 µM [inhibitor, partial curve, poor fit]",
O=C(c1cccs1)N1C[C@@H](n2cc(C3CC3)nn2)[C@H](O)C[C@@H]1c1ccc(Cl)cc1,,inactive: -7.92%
Cc1ccccc1NC(=O)Nc1ccccc1Br,,inactive: -2.43%
COc1cccc(/C=N/n2c(=S)n(C)c3cc(C)c(C)cc32)c1OC,,inactive: -0.638%
CCOC(=O)C(C)(C)N(Cc1ccc(C)cc1)S(=O)(=O)c1ccc(Cl)c([N+](=O)[O-])c1,"inconclusive: 35.5 µM [inhibitor, single point]",
Cc1ccccc1-c1nnc(CN2CCN(c3ccccn3)CC2)o1,,inactive: -13.7%
COc1ccc(-c2noc(-c3ccc(N4CCN(C)CC4)c([N+](=O)[O-])c3)n2)cc1OC,,inactive: 0%
O=C(OC1C2CCC1C1CN(CCc3ccccc3)CC12)c1ccccc1 (centres undefined),,inactive: -19.3%
CC1CCN(S(=O)(=O)c2ccc(C(=O)NCc3ccc4c(c3)OCO4)cc2)CC1,,inactive: -3.99%
O=C(NCc1ccco1)c1nc2c(nnn2Cc2ccccc2Cl)c(=O)[nH]1,active: 15.8 µM,
COc1ccccc1C(=O)Nc1c(C(=O)N(C)Cc2ccccc2)sc2nc(C)c(Cl)c(C)c12,"inconclusive: 25.1 µM [inhibitor, single point]",
CCOC(=O)c1cnn2c(C(F)(F)F)cc(-c3cn(C)nc3C)nc12,,inactive: 7.47%
CN1CCN(C2Cc3cc(Cl)ccc3Sc3cc(F)ccc32)CC1 (centres undefined),"inconclusive: 26.7 µM [inhibitor, partial curve, poor fit]",

Compound,Potency,"activity change, negative = inhibition"
O=C(NO)c1ccc(C(=O)N(C2CCCCC2)C2CCCCC2)cc1,"inconclusive: 28.2 µM [inhibitor, single point]",
Cc1nn(-c2ccc(F)cc2)c2sc(C(=O)N3CCCCCC3)cc12,,inactive: 38.6%
O=C(O)Cn1c(=O)n(Cc2ccc(Br)cc2F)c(=O)c2ccc(Cl)cc21,,inactive: 1.96%
O=C(NCc1ccccc1Cl)C1CCCN(C(=O)c2cnn(-c3ccccc3)c2-n2cccc2)C1 (centres undefined),,inactive: 0%
CCCCOc1ccc(CN2C(=O)C(=O)c3cc(Br)cc(C)c32)cc1OC,active: 31.6 µM,
O=C(CNS(=O)(=O)c1ccc([N+](=O)[O-])cc1)N/N=C/c1ccc(O)cc1O,active: 23.8 µM,
CCOC(=O)c1c(CSCc2ccccc2)oc2ccc(O)c(CN(C)C)c12,"inconclusive: 17.8 µM [inhibitor, single point]",
COc1cccc(CNC(=O)CN(C)S(=O)(=O)c2ccc3[nH]c4c(c3c2)CCCC4)c1,"inconclusive: 39.8 µM [inhibitor, single point]",
CCCN(N=Nc1cccc([N+](=O)[O-])c1)c1cccc([N+](=O)[O-])c1,"inconclusive: 31.6 µM [inhibitor, partial curve, poor fit]",
CC(C)CC1N=C2c3ccccc3N=C(SCC(=O)NCCc3ccc(Cl)cc3)N2C1=O (centres undefined),,inactive: -8.86%
CC(=O)c1ccc(Nc2cc(C)nc3c(C)cc(C)cc23)cc1,"inconclusive: 22.4 µM [inhibitor, single point]",
C[C@@H]1CN([C@@H](C)CO)S(=O)(=O)c2ccc(/C=C/c3ccccc3)cc2O[C@@H]1CN(C)Cc1ccc(C(=O)O)cc1,"inconclusive: 3.55 µM [inhibitor, partial curve, poor fit]",
CCn1c(SCC(=O)N2CCCCCC2)nc2ccccc2c1=O,,inactive: -26.6%
COc1ccc(O)c(/C=N/NC(=O)c2ccc(CSc3nc(C)cc(C)n3)cc2)c1,active: 4.47 µM,
Cc1ccc(Cc2c(-c3ccccc3)nc3cc(C)c(Br)c(C)n23)cc1,,inactive: 26.8%
Cc1ccc(NS(=O)(=O)c2ccc3c(c2)CC(C)N3C(=O)C2CCC2)cc1Cl (centres undefined),"inconclusive: 31.6 µM [inhibitor, partial curve, poor fit]",
CCc1cccc(NC(=O)C2CCCN(S(=O)(=O)c3cccs3)C2)c1 (centres undefined),"inconclusive: 28.2 µM [inhibitor, single point]",
CN1CC[C@H](c2c(O)cc(O)c3c(=O)cc(-c4ccccc4Cl)oc23)[C@H](O)C1,active: 31.6 µM,
CN=c1sc2c(n1C)C(=O)c1ccccc1C2=O,"inconclusive: 28.2 µM [inhibitor, single point]",
Cc1ccc(NC(=O)Nc2cc(C(F)(F)F)ccc2F)cc1Nc1ccc2c(c1)NC(=O)C2=Cc1ccc[nH]1,"inconclusive: 38.5 µM [inhibitor, single point]",
Cn1c(=O)c2c(nc(CN3CCN(Cc4ccccc4)CC3)n2Cc2ccc(Cl)cc2)n(C)c1=O,"inconclusive: 33.6 µM [inhibitor, partial curve, poor fit]",
COc1ccc(S(=O)(=O)c2c(C)c(NS(=O)(=O)c3ccccc3)cc(C)c2O)cc1,"inconclusive: 35.5 µM [inhibitor, partial curve, poor fit]",
OCCC1CN(CCCn2cccn2)CCN1Cc1ccccc1 (centres undefined),,inconclusive: -47.6% [inhibitor]
